Test results: PMC9911399, “Two distinct binding modes provide the RNA-binding protein RbFox with extraordinary sequence specificity”
Positions count from the first letter of the chain named. This is one part of the list.

T1: RBFOX1 RRM (Homo sapiens, UniProt Q9NWB1 109-208)
T1 sequence: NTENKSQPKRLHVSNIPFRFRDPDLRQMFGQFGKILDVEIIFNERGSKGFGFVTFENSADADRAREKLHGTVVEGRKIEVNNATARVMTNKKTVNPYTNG

B1: AAAUAUA (DNA:RNA)
RNA: GGGAGACCGGAAUUCAGAUUGUCCAAAUAUAUUAAAUCCCGUCGUAGCCACCA
DNA 1: CAATCTGAATTCCGGTCTCCC
DNA 2: TGGTGGCTACGACGGGATT
B2: GACUUAG (DNA:RNA)
RNA: B1 RNA with A25G, A27C, A29U, U30A, A31G
DNA 1: CAATCTGAATTCCGGTCTCCC
DNA 2: TGGTGGCTACGACGGGATT
B3: GGCGACA (DNA:RNA)
RNA: B1 RNA with A25G, A26G, A27C, U28G, U30C
DNA 1: CAATCTGAATTCCGGTCTCCC
DNA 2: TGGTGGCTACGACGGGATT
B4: UGAUAGC (DNA:RNA)
RNA: B1 RNA with A25U, A26G, U30G, A31C
DNA 1: CAATCTGAATTCCGGTCTCCC
DNA 2: TGGTGGCTACGACGGGATT
B5: UGGGACG (DNA:RNA)
RNA: B1 RNA with A25U, A26G, A27G, U28G, U30C, A31G
DNA 1: CAATCTGAATTCCGGTCTCCC
DNA 2: TGGTGGCTACGACGGGATT
B6: AGACCAC (DNA:RNA)
RNA: B1 RNA with A26G, U28C, A29C, U30A, A31C
DNA 1: CAATCTGAATTCCGGTCTCCC
DNA 2: TGGTGGCTACGACGGGATT
B7: CCGCUUG (DNA:RNA)
RNA: B1 RNA with A25C, A26C, A27G, U28C, A29U, A31G
DNA 1: CAATCTGAATTCCGGTCTCCC
DNA 2: TGGTGGCTACGACGGGATT
B8: UCCUACU (DNA:RNA)
RNA: B1 RNA with A25U, A26C, A27C, U30C, A31U
DNA 1: CAATCTGAATTCCGGTCTCCC
DNA 2: TGGTGGCTACGACGGGATT
B9: AUCGAGA (DNA:RNA)
RNA: B1 RNA with A26U, A27C, U28G, U30G
DNA 1: CAATCTGAATTCCGGTCTCCC
DNA 2: TGGTGGCTACGACGGGATT
B10: ACAGCAA (DNA:RNA)
RNA: B1 RNA with A26C, U28G, A29C, U30A
DNA 1: CAATCTGAATTCCGGTCTCCC
DNA 2: TGGTGGCTACGACGGGATT
B11: UCGAUCA (DNA:RNA)
RNA: B1 RNA with A25U, A26C, A27G, U28A, A29U, U30C
DNA 1: CAATCTGAATTCCGGTCTCCC
DNA 2: TGGTGGCTACGACGGGATT
B12: CGGAUAA (DNA:RNA)
RNA: B1 RNA with A25C, A26G, A27G, U28A, A29U, U30A
DNA 1: CAATCTGAATTCCGGTCTCCC
DNA 2: TGGTGGCTACGACGGGATT
B13: ACAUAAG (DNA:RNA)
RNA: B1 RNA with A26C, U30A, A31G
DNA 1: CAATCTGAATTCCGGTCTCCC
DNA 2: TGGTGGCTACGACGGGATT
B14: UAUAUCU (DNA:RNA)
RNA: B1 RNA with A25U, A27U, U28A, A29U, U30C, A31U
DNA 1: CAATCTGAATTCCGGTCTCCC
DNA 2: TGGTGGCTACGACGGGATT
B15: UCGCUCA (DNA:RNA)
RNA: B1 RNA with A25U, A26C, A27G, U28C, A29U, U30C
DNA 1: CAATCTGAATTCCGGTCTCCC
DNA 2: TGGTGGCTACGACGGGATT
B16: CUGGAUC (DNA:RNA)
RNA: B1 RNA with A25C, A26U, A27G, U28G, A31C
DNA 1: CAATCTGAATTCCGGTCTCCC
DNA 2: TGGTGGCTACGACGGGATT
B17: UUGGGCA (DNA:RNA)
RNA: B1 RNA with A25U, A26U, A27G, U28G, A29G, U30C
DNA 1: CAATCTGAATTCCGGTCTCCC
DNA 2: TGGTGGCTACGACGGGATT
B18: ACUGAGC (DNA:RNA)
RNA: B1 RNA with A26C, A27U, U28G, U30G, A31C
DNA 1: CAATCTGAATTCCGGTCTCCC
DNA 2: TGGTGGCTACGACGGGATT
B19: GUUUAGC (DNA:RNA)
RNA: B1 RNA with A25G, A26U, A27U, U30G, A31C
DNA 1: CAATCTGAATTCCGGTCTCCC
DNA 2: TGGTGGCTACGACGGGATT
B20: GAUGAAU (DNA:RNA)
RNA: B1 RNA with A25G, A27U, U28G, U30A, A31U
DNA 1: CAATCTGAATTCCGGTCTCCC
DNA 2: TGGTGGCTACGACGGGATT

biological target: T1, RBFOX1 RRM; assay: EMSA; HiTS-Eq, 1 nM pool, 10 min; buffer printed only for the single-RNA assays: 10 mM Tris pH 7.5, 150 mM NaCl, 3.4 mM EDTA, 0.001% NP-40, 30 C; conditions: tags: His6 N-terminal (pET28a); label: 5' 32P
How it was run: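 Purified RbFox RRM (wild type or mutant) was equilibrated for 10 min in 50 µL with 1 nM of a 5′-radiolabelled pool of RNA with 7 randomized nucleotides, its flanks annealed to DNA oligonucleotides, across increasing protein concentrations. Free RNA was separated by 8% native PAGE, excised, reverse-transcribed, PCR-barcoded and sequenced on an Illumina HiSeq 2500. Relative association constants came from read-count changes of each variant against the control reaction, normalised to the cognate motif.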

| Binder | binding signal |
| --- | --- |
| B1 | 0.000271 KA relative to UGCAUGU |
| B2 | 0.0127 KA relative to UGCAUGU |
| B3 | 0.00696 KA relative to UGCAUGU |
| B4 | 0.0199 KA relative to UGCAUGU |
| B5 | 0.016 KA relative to UGCAUGU |
| B6 | 0.00152 KA relative to UGCAUGU |
| B7 | 0.0253 KA relative to UGCAUGU |
| B8 | 0.00647 KA relative to UGCAUGU |
| B9 | 0.00758 KA relative to UGCAUGU |
| B10 | 0.00209 KA relative to UGCAUGU |
| B11 | 0.00752 KA relative to UGCAUGU |
| B12 | 0.0169 KA relative to UGCAUGU |
| B13 | 0.00289 KA relative to UGCAUGU |
| B14 | 0.00251 KA relative to UGCAUGU |
| B15 | 0.00473 KA relative to UGCAUGU |
| B16 | 0.0198 KA relative to UGCAUGU |
| B17 | 0.0113 KA relative to UGCAUGU |
| B18 | 0.0117 KA relative to UGCAUGU |
| B19 | 0.013 KA relative to UGCAUGU |
| B20 | 0.0146 KA relative to UGCAUGU |
